# Values joined by “and” are separate entries in the source; they are usually repeats but may differ in a detail not shown here. Identical values can stand only once. This list was built around the results that the source calls inconclusive (neither active nor inactive); the mix of calls is not that of the screen. For part of these data: Where the call is inconclusive, the potency comes from a doubtful curve fit. Active and inactive are the calls of the source. Unless noted, calls follow the shape of the dose curve; as a rule, active = well fitted curve in the direction sought with a large enough effect; inconclusive = small, poorly fitted or top-dose-only effect, or another doubt; inactive = no such curve, though single readings can be large; an effect the other way counts as inactive or inconclusive.
# How the values were obtained:
# [1] = qHTS for Inhibitors of Plasmodium falciparum (GB4) proliferation (AID 504315); also: nearly all actives have a fitted effect of over 50% in size; also: potency is read from the fitted curve at half-maximal effect;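 as to activity change, negative = inhibition: 0% = DMSO vehicle and -100% = 0.29 µM artemisinin control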; settings: P. falciparum GB4 in erythrocytes, SYBR Green DNA, 72 h; activity change, negative = inhibition: at 6.7 µM (top of the series)
# Outline: (§1)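 Parasite growth measured as SYBR Green DNA fluorescence (ex 485, em 535 nm) after overnight lysis following 72 h culture at 37 °C, 0.3% parasitemia, 2.5% hematocrit. Values normalized against DMSO and 0.29 uM artemisinin controls, with plate-stack correction.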
# [2] = qHTS for Inhibitors of Plasmodium falciparum (7G8) proliferation (AID 504316); also: nearly all actives have a fitted effect of over 65% in size; also: potency is read from the fitted curve at half-maximal effect;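 as to activity change, negative = inhibition: 0% = DMSO vehicle and -100% = 0.29 µM artemisinin full kill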; settings: P. falciparum 7G8 in erythrocytes, SYBR Green DNA, 72 h; activity change, negative = inhibition: at 6.7 µM (top of the series)
# Outline: as §1
# [3] = molecular target: Atrial natriuretic peptide receptor 1 (Homo sapiens) (UniProt P16066); assay: Natriuretic polypeptide receptor (hNpr1) antagonism - Pilot CMLD screen (AID 1347052; calls by dose curve;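 also: cGMP level read as GloSensor luciferase luminescence after agonist stimulation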; also: potency is read from the fitted curve at half-maximal effect;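 as to activity change, negative = inhibition: HEK293 cells with hNpr1 stimulated by hNppA peptide at 0.1 nM; % is scaled to controls: 0 for no effect and ±100 for the full control effect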)
# Sequence of UniProt P16066 (P16066 whole entry, looked up): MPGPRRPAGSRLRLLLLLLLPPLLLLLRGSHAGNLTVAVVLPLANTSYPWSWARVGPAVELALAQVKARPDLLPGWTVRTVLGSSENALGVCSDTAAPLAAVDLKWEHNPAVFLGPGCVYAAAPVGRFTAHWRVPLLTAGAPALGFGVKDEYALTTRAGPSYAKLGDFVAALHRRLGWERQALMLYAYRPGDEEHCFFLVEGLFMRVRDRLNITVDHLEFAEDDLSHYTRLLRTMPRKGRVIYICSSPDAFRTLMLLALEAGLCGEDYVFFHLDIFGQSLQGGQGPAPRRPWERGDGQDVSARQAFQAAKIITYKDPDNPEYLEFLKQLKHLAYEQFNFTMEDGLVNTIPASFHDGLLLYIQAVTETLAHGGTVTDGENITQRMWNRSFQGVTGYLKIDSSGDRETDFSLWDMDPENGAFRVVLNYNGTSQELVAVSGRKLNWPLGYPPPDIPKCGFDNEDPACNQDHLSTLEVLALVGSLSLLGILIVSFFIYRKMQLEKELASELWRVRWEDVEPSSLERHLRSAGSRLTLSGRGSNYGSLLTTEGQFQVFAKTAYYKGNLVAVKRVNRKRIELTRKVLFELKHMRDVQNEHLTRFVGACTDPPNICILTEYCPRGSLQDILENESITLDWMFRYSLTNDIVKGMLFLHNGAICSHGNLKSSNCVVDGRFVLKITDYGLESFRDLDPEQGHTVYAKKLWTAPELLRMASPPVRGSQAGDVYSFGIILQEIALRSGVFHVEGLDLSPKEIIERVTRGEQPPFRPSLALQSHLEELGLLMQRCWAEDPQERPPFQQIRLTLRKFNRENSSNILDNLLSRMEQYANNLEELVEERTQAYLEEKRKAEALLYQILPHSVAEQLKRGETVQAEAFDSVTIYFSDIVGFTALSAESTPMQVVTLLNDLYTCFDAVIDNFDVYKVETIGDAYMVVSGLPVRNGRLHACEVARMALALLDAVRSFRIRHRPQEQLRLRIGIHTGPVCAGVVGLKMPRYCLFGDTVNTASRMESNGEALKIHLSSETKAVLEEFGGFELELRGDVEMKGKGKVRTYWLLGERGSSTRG
# [4] = qHTS for Inhibitors of Plasmodium falciparum (DD2) proliferation (AID 504314); also: potency is read from the fitted curve at half-maximal effect
# Outline: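 Normalization used 0.29 uM artemisinin as full inhibition and DMSO as baseline. Parasitized erythrocytes were exposed to compounds for 72 h (37C, 5% CO2), then lysed with saponin/Triton buffer containing SYBR Green I.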
# [5] = qHTS for Inhibitors of Plasmodium falciparum (HB3) proliferation (AID 504318); also: nearly all actives have a fitted effect of over 60% in size; also: potency is read from the fitted curve at half-maximal effect;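 as to activity change, negative = inhibition: 0% = DMSO vehicle and -100% = artemisinin control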; settings: P. falciparum HB3 in erythrocytes, SYBR Green DNA, 72 h; activity change, negative = inhibition: at 7.21 µM (top of the series)
# Outline: as §1
# [6] = qHTS for Inhibitors of Plasmodium falciparum (CP250) proliferation (AID 504320); also: potency is read from the fitted curve at half-maximal effect;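 as to activity change, negative = inhibition: plate controls were DMSO vehicle for no effect and 0.29 µM artemisinin control for full effect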
# Outline: as §1
# [7] = molecular target: Cytochrome P450 2C9 (Homo sapiens) (UniProt P11712); assay: qHTS Assay for Inhibitors and Substrates of Cytochrome P450 2C9 (AID 883); also: potency is read from the fitted curve at half-maximal effect; nearly all actives have a fitted effect of over 60% in size
# Sequence of UniProt P11712 (P11712 whole entry, looked up): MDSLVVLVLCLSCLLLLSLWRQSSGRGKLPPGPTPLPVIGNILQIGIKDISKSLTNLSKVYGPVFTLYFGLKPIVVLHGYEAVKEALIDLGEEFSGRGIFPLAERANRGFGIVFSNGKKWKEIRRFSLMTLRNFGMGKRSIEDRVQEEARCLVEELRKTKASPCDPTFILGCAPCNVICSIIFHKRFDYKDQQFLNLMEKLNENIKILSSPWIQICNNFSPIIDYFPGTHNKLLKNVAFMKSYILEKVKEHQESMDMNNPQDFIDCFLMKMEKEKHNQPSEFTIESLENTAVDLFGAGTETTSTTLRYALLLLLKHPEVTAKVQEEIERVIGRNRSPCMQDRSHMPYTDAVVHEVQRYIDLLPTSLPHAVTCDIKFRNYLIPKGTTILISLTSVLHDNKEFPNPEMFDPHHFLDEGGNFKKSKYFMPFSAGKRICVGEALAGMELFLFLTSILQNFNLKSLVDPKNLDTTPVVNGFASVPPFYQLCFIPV
# Outline: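 Human CYP2C9 (10nM) with Luciferin-H at 100uM (its KM) in 25mM KPO4; compound preincubated 10 min at 37C, then NADPH regeneration for 60 min at 37C. Luciferin read by luminescence after detection reagent; normalized to 57uM sulphaphenazole as full inhibition.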
# [8] = molecular target: Cytochrome P450 3A4 (Homo sapiens) (UniProt P08684); assay: qHTS Assay for Inhibitors and Substrates of Cytochrome P450 3A4 (AID 884); settings: recombinant CYP3A4, Luciferin-PPXE luminescence; activity change, negative = inhibition: at 57.1 µM (top of the series); also: potency is read from the fitted curve at half-maximal effect; nearly all actives have a fitted effect of over 50% in size
# Sequence of UniProt P08684 (P08684 whole entry, looked up): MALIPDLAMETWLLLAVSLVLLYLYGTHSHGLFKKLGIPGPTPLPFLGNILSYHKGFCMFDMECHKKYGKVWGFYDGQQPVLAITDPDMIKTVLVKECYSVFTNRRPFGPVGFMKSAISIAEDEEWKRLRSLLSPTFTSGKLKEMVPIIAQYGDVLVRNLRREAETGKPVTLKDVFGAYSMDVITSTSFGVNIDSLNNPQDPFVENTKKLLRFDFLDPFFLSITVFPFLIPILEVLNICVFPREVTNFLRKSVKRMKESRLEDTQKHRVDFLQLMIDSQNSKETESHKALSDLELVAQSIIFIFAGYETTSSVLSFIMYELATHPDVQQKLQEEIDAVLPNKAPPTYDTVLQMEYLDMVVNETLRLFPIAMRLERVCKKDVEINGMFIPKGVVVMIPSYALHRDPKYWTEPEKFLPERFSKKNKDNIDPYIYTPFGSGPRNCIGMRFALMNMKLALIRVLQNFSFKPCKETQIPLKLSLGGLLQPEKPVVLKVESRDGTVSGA
# Outline: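 Luminescent readout of luciferin produced by CYP3A4 (20 nM) dealkylation of Luciferin-PPXE, 25 uM (its KM). NADPH-driven reaction ran 60 min at RT after 10 min compound preincubation; data scaled to 57 uM ketoconazole as 100% inhibition.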
# [9] = molecular target: Cytochrome P450 2D6 (Homo sapiens) (UniProt P10635); assay: qHTS Assay for Inhibitors and Substrates of Cytochrome P450 2D6 (AID 891);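 also: luciferin methyl ether substrate demethylated by CYP2D6 with NADPH regeneration; potency is read from the fitted curve at half-maximal effect; nearly all actives have a fitted effect of over 60% in size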
# Sequence of UniProt P10635 (P10635 whole entry, looked up): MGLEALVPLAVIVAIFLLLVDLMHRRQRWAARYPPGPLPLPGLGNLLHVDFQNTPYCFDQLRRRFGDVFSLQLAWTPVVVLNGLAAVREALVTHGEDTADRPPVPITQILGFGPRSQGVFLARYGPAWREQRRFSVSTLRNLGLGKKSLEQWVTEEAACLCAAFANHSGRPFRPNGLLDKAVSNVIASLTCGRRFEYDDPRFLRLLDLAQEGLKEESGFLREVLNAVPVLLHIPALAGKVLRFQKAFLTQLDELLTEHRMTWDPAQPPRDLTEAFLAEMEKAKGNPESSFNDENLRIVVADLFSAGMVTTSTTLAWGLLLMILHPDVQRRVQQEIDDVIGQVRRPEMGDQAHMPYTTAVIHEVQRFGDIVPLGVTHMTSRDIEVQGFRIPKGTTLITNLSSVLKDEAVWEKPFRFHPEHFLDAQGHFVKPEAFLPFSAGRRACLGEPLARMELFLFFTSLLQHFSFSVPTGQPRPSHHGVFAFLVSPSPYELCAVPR
# Outline: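 Luminescent read-out of luciferin formed by 5 nM human CYP2D6 demethylating 30 uM Luciferin-ME EGE (Km level) over 60 min at room temperature after NADPH regeneration addition. Data normalized to full inhibition by 1.43 uM quinidine.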
# [10] = qHTS Assay for Identification of Small Molecule Agonists for Hypoxia Response Element Signaling Pathway (AID 914; active = well fitted activation curve with a large enough effect in the signal ratio, with a control signal flat, not every such curve was filed as active; inconclusive = small, poorly fitted or top-dose-only effect, or effect the other way, or a change in a side signal; the % refers to the signal ratio; also: top concentration of the series differs between compounds; % of control where 0% means no effect); settings: ME-180 (cervical carcinoma) HRE-bla reporter, beta-lactamase ratio, CoCl2, 17 h; activation: stronger effect = higher value
# Outline: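 HRE-bla ME-180 cells, overnight plating in Opti-MEM with 0.5% dialyzed FBS; cpd titration + EC50 CoCl2, 17 h, 37 degrees Celsius; CCF4 2.5 h RT; 460/530 nm ratio; AC50.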
# Tags tell the direction and shape of the fitted curve.
compound,measurement,setting,value
CCCCCCCc1cc2ccccc2c2c(C(=O)OC)c(C)c(C(=O)OC)n12,Potency,[1],"inconclusive: 2390 nM [inhibitor, partial curve, poor fit]"
same,Potency,[2],"inconclusive: 4.26 µM [inhibitor, single point]"
same,Potency,[3],active: 944 nM
COc1ccc2c(c1)C[C@@H](C)O[C@]21C(=O)Nc2ccccc21,Potency,[4],"inconclusive: 0.0106 µM [inhibitor, full curve, poor fit]"
same,Potency,[2],"inconclusive: 0.0019 µM [inhibitor, full curve]"
same,Potency,[5],inactive
same,Potency,[3],inactive
COC(=O)C1=C(C)N(Cc2ccccc2)C(=NCCc2cccnc2)NC1c1ccc(Br)cc1 (configuration not stated),Potency,[4],active: 1.5 µM
same,Potency,[2],"inconclusive: 0.953 µM [inhibitor, partial curve]"
same,Potency,[5],"inconclusive: 4.78 µM [inhibitor, single point]"
same,Potency,[6],active: 1900 nM
same,Potency,[3],"inconclusive: 5310 nM [inhibitor, single point]"
CCO[C@H](c1cc(OC)cc([N+](=O)[O-])c1OC)[C@H](C)C=CCC(=O)OC,Potency,[1],inactive
same,Potency,[3],"inconclusive: 1190 nM [inhibitor, single point]"
CC(=O)C1=C(C)N(Cc2ccccc2)C(=O)NC1c1ccc(Br)cc1 (configuration not stated),Potency,[4],"inconclusive: 1.34 µM [inhibitor, single point] and inconclusive: 533 nM [inhibitor, partial curve, poor fit]"
same,Potency,[5],"inconclusive: 1.51 µM [inhibitor, partial curve, poor fit] and inactive"
same,Potency,[3],inactive
Fc1ccccc1-c1nc(-c2ccccc2)oc1NC1CCCCC1,Potency,[4],inactive
same,Potency,[2],inactive
same,Potency,[5],inactive
same,Potency,[3],"inconclusive: 6680 nM [inhibitor, single point]"
CC(CCN1CCCCc2nc(C)c(C)cc21)=NO[C@@H](C)c1cn([C@H](CO)Cc2ccccc2)nn1,Potency,[4],"inconclusive: 4.24 µM [inhibitor, single point]"
same,Potency,[2],"inconclusive: 1.69 µM [inhibitor, single point]"
same,Potency,[5],"inconclusive: 1.51 µM [inhibitor, single point]"
same,Potency,[3],"inconclusive: 3350 nM [inhibitor, single point]"
C[C@@H]1CC[C@H]2C(=O)N(Cc3cccc([N+](=O)[O-])c3)C[C@H](O)CN2[C@@H]1c1ccc(Br)cc1,Potency,[4],"inconclusive: 3.78 µM [inhibitor, single point]"
same,Potency,[2],inactive
same,Potency,[5],"inconclusive: 1.9 µM [inhibitor, single point]"
same,Potency,[3],"inconclusive: 94.4 nM [inhibitor, single point]"
CC1(OC(=O)CCc2ccccc2)C(=O)C=C2C=C(c3ccc(C#N)cc3)N(Cc3ccccc3)C=C2C1=O (configuration not stated),Potency,[4],"inconclusive: 0.845 µM [inhibitor, partial curve, poor fit]"
same,Potency,[2],"inconclusive: 1.51 µM [inhibitor, partial curve, poor fit]"
same,"activity change, negative = inhibition",[2],inconclusive: -25.1% [inhibitor]
same,Potency,[5],"inconclusive: 4.78 µM [inhibitor, single point] and inconclusive: 1.9 µM [inhibitor, single point]"
same,Potency,[3],"inconclusive: 6680 nM [inhibitor, single point]"
COC(=O)CC=C1c2ccccc2[C@@H](OC)[C@@H]1C,Potency,[4],inactive
same,Potency,[5],inactive
same,Potency,[3],inactive
CC(=O)C1=C(C)N(Cc2ccccc2)C(=O)NC1CCc1ccccc1 (configuration not stated),Potency,[1],"inconclusive: 1510 nM [inhibitor, single point]"
same,Potency,[2],"inconclusive: 953 nM [inhibitor, partial curve, poor fit] and inconclusive: 3.01 µM [inhibitor, partial curve, poor fit]"
same,Potency,[3],"inconclusive: 106 nM [inhibitor, partial curve, poor fit]"
CCCC[C@]12Cc3ccccc3[C@H](O1)c1c(cc(-c3ccccc3)oc1=O)O2,Potency,[4],active: 1.69 µM
same,Potency,[2],active: 1.9 µM
same,Potency,[5],"inconclusive: 2.39 µM [inhibitor, single point]"
same,Potency,[6],"inconclusive: 2130 nM [inhibitor, single point]"
same,Potency,[3],inactive
C[C@H](NC(=O)N1CCc2nc(COc3ccccc3)c3c(c2C1)CO[C@@H](C)C3)c1ccccc1,Potency,[4],"inconclusive: 1.19 µM [inhibitor, single point]"
same,Potency,[2],"inconclusive: 1.69 µM [inhibitor, single point] and inconclusive: 4.26 µM [inhibitor, partial curve, poor fit]"
same,Potency,[5],"inconclusive: 3.29 µM [inhibitor, single point] and inconclusive: 4.26 µM [inhibitor, partial curve, poor fit]"
same,Potency,[3],inactive
Cc1cc2c(c(=O)n1-c1ccccc1)[C@H]1O[C@](c3ccsc3)(Cc3ccccc31)O2,Potency,[4],"inconclusive: 1.69 µM [inhibitor, partial curve, poor fit]"
same,Potency,[2],active: 1.51 µM
same,Potency,[5],"inconclusive: 1.69 µM [inhibitor, single point]"
same,Potency,[3],inactive
CCN1C(=O)NC(c2ccc(Br)cc2)C(C(=O)OC)=C1C (configuration not stated),Potency,[4],inactive
same,Potency,[2],inactive
same,Potency,[5],inactive
same,Potency,[3],"inconclusive: 94.4 nM [inhibitor, full curve]"
Cc1ccccc1Nc1oc(-c2ccccc2)nc1-c1cccc2ccccc12,Potency,[4],"inconclusive: 4.24 µM [inhibitor, single point]"
same,Potency,[2],"inconclusive: 1.51 µM [inhibitor, single point]"
same,Potency,[5],"inconclusive: 1.69 µM [inhibitor, partial curve]"
same,Potency,[6],"inconclusive: 1200 nM [inhibitor, partial curve]"
same,Potency,[3],inactive
COc1ccc(O[C@H]2C=C[C@@H](c3ccccc3)O[C@H]2COC(=O)CCC(C)=NO[C@H](C)c2cn([C@H](CO)Cc3ccccc3)nn2)cc1,Potency,[4],"inconclusive: 2.67 µM [inhibitor, partial curve, poor fit]"
same,Potency,[2],active: 1.51 µM
same,Potency,[5],"inconclusive: 1.69 µM [inhibitor, single point]"
same,Potency,[3],"inconclusive: 3760 nM [inhibitor, single point]"
COC[C@@H](O)[C@@H](OC)[C@H](OC)[C@H](Cc1c(OC)cc(OC)cc1OC)OC,Potency,[1],inactive
same,Potency,[3],"inconclusive: 84.1 nM [inhibitor, single point]"
C=C(C)C(O)C=Cc1ccc(C(F)(F)F)cc1 (configuration not stated),Potency,[4],"inconclusive: 3 µM [inhibitor, partial curve, poor fit]"
same,Potency,[6],inactive
same,Potency,[3],active: 5310 nM
CCCCC1=CC2=C(c3ccco3)C(=O)C(C)(OC(=O)c3ccc(OC)cc3)C(=O)C2=CN1c1ccccc1 (configuration not stated),Potency,[4],"inconclusive: 1.34 µM [inhibitor, single point]"
same,Potency,[5],"inconclusive: 1.9 µM [inhibitor, single point]"
same,Potency,[3],"inconclusive: 106 nM [inhibitor, single point]"
COC(=O)C1=C[C@H]([C@@H](C)[C@H](OC)c2ccccc2Br)[C@H]2c3ccccc3O[C@@H]12,Potency,[4],"inconclusive: 4.24 µM [inhibitor, single point]"
same,Potency,[2],"inconclusive: 0.426 µM [inhibitor, single point]"
same,Potency,[3],inactive
CC(=O)OC[C@H]1O[C@H](CC=NO[C@@H](C)CN2CCCc3nc(C)c(C)cc32)C=C[C@@H]1OC(C)=O,Potency,[1],inactive
same,Potency,[2],"inconclusive: 0.849 µM [activator, partial curve, poor fit]"
same,Potency,[3],inactive
COC(=O)[C@@H]1CC[C@H](C)[C@@H](c2ccc(C)cc2)N1C(=O)c1ccc(C=NO[C@@H](C)c2cc(-c3c(C)cc(C)cc3C)no2)cc1,Potency,[4],"inconclusive: 3.78 µM [inhibitor, single point]"
same,Potency,[2],active: 1.69 µM
same,Potency,[5],"inconclusive: 2.13 µM [inhibitor, single point]"
same,Potency,[6],active: 1690 nM
same,Potency,[3],"inconclusive: 266 nM [inhibitor, partial curve]"
CCN1C(=NCc2ccc(OC)cc2)NC(c2cccc(F)c2)C(C(=O)OC)=C1C (configuration not stated),Potency,[1],"inconclusive: 1690 nM [inhibitor, partial curve]"
same,Potency,[3],inactive
C[C@@H]1CC[C@H]2C(=O)NC[C@@H](O)CN2[C@@H]1c1ccc(Br)cc1,Potency,[7],"inconclusive: 5010 nM [inhibitor, partial curve, poor fit]"
same,Potency,[8],"inconclusive: 3980 nM [inhibitor, partial curve]"
same,Potency,[9],"inconclusive: 3160 nM [inhibitor, single point]"
same,activation,[10],inactive: -3.48%
CCN1C(=O)[C@@H]2[C@H]3[C@H](O)[C@H](O)CC(=NO[C@@H](C)c4cc(-c5c(C)cc(C)cc5C)no4)[C@@H]3CC[C@H]2C1=O,Potency,[2],inactive
same,Potency,[5],"inconclusive: 4.15 µM [inhibitor, single point]"
same,Potency,[3],"inconclusive: 1190 nM [inhibitor, single point]"
Nc1ccccc1C(=O)C=Cc1ccccc1,Potency,[2],"inconclusive: 1.69 µM [inhibitor, partial curve, poor fit]"
same,Potency,[5],"inconclusive: 3.29 µM [inhibitor, single point]"
same,Potency,[6],"inconclusive: 4260 nM [inhibitor, single point]"
same,Potency,[3],"inconclusive: 2660 nM [inhibitor, single point]"
COC(=O)c1cc(C(=O)OC)n2c(C)cc3ccccc3c12,Potency,[5],"inconclusive: 0.0043 µM [inhibitor, partial curve, poor fit]"
same,Potency,[3],inactive
C=CC[C@]1(C(=O)OC)C=C[C@H](C)[C@@H](c2ccccc2)N1C(=O)C(F)(F)F,Potency,[2],inactive
same,Potency,[3],"inconclusive: 4730 nM [inhibitor, single point]"
